Test results as given in a collection of fitness landscapes (doi:10.1126/science.1257360).
Some of the results follow.

B1: PhoQ; a variant is named by its letters at X, in order, P23837 (parent)
chain: MKKLLRLFFPLSLRVRFLLATAAVVLVLSLAYGMVALIGYSVSFDKTTFRLLRGESNLFYTLAKWENNKLHVELPENIDKQSPTMTLIYDENGQLLWAQRDVPWLMKMIQPDWLKSNGFHEIEADVNDTSLLLSGDHSIQQQLQEVREDDDDAEMTHSVAVNVYPATSRMPKLTIVVVDTIPVELKSSYMVWSWFIYVLSANLLLVIPLLWVAAWWSLRPIEALAKEVRELEEHNRELLNPATTRELTSLVRNLNRLLKSERERYDKYRTTLTDLTHSLKTPLXXLQXXLRSLRSEKMSVSDAEPVMLEQISRISQQIGYYLHRASMRGGTLLSRELHPVAPLLDNLTSALNKVYQRKGVNISLDISPEISFVGEQNDFVEVMGNVLDNACKYCLEFVEISARQTDEHLYIVVEDDGPGIPLSKREVIFDRGQRVDTLRPGQGVGLAVAREITEQYEGKIVAGESMLGGARMEVIFGRQHSAPKDE

Variants of: B1
Experiment: enrichment ratio after two sorts for PhoP signalling (ratio (wild type AVST 3.29)); higher = more functional
Details: with PhoP (E. coli)
In the case of VLIR, the enrichment ratio is reported as ≤ 0.25. For PQYP, the enrichment ratio was ≤ 0.25. In the case of WFYR, the enrichment ratio is reported as 0.626. In the case of PRLN, the enrichment ratio is reported as ≤ 0.25. MAQL was tested, and the enrichment ratio was ≤ 0.25. RFNP was tested, and the enrichment ratio was ≤ 0.25. In the case of ARHD, the enrichment ratio is reported as ≤ 0.25. For HPSM, the enrichment ratio was ≤ 0.25. With NKKP the enrichment ratio was ≤ 0.25. NKCD was tested, and the enrichment ratio was ≤ 0.25. In the case of KGAW, the enrichment ratio is reported as ≤ 0.25. In the case of HRSW, the enrichment ratio is reported as ≤ 0.25. For HPCK, the enrichment ratio was ≤ 0.25. In the case of WRKV, the enrichment ratio is reported as ≤ 0.25. For TFID, the enrichment ratio was ≤ 0.25. For LHYG, the enrichment ratio was ≤ 0.25. FWIE was tested, and the enrichment ratio was ≤ 0.25. In the case of TWIH, the enrichment ratio is reported as ≤ 0.25. DGYW was tested, and the enrichment ratio was ≤ 0.25. For WWAH, the enrichment ratio was ≤ 0.25. In the case of SMEV, the enrichment ratio is reported as ≤ 0.25. GMGS was tested, and the enrichment ratio was ≤ 0.25. For HIPT, the enrichment ratio was ≤ 0.25. With GGEG the enrichment ratio was ≤ 0.25. VMNV was tested, and the enrichment ratio was ≤ 0.25. In the case of WKKE, the enrichment ratio is reported as ≤ 0.25. For NRMA, the enrichment ratio was ≤ 0.25. In the case of GWSK, the enrichment ratio is reported as ≤ 0.25. ARCN was tested, and the enrichment ratio was ≤ 0.25. For LPRP, the enrichment ratio was ≤ 0.25. With GLVN the enrichment ratio was ≤ 0.25. For GVLI, the enrichment ratio was 15.6. For LLEV, the enrichment ratio was ≤ 0.25. With ILER the enrichment ratio was ≤ 0.25. NWAV was tested, and the enrichment ratio was ≤ 0.25. Variant ACAN has an enrichment ratio of 15.5. For MTFW, the enrichment ratio was ≤ 0.25. ATCG was tested, and the enrichment ratio was 16.1. In the case of PTYT, the enrichment ratio is reported as ≤ 0.25. With NAYA the enrichment ratio was ≤ 0.25. For PKMP, the enrichment ratio was ≤ 0.25. In the case of VWHR, the enrichment ratio is reported as ≤ 0.25. For EMQI, the enrichment ratio was ≤ 0.25. WPCM was tested, and the enrichment ratio was ≤ 0.25. LLDP was tested, and the enrichment ratio was ≤ 0.25. RKAE was tested, and the enrichment ratio was ≤ 0.25. In the case of VTWH, the enrichment ratio is reported as ≤ 0.25. ANVM gave an enrichment ratio of 14.9. Variant SDAH has an enrichment ratio of 3.67. In the case of VCYQ, the enrichment ratio is reported as ≤ 0.25. In the case of WNKL, the enrichment ratio is reported as ≤ 0.25. In the case of LVRG, the enrichment ratio is reported as ≤ 0.25. With LIKM the enrichment ratio was ≤ 0.25. For KIHN, the enrichment ratio was ≤ 0.25. With YIHY the enrichment ratio was ≤ 0.25. FCMP was tested, and the enrichment ratio was ≤ 0.25. With RSTW the enrichment ratio was ≤ 0.25. VLVY was tested, and the enrichment ratio was ≤ 0.25. For NCRM, the enrichment ratio was ≤ 0.25. In the case of NQVN, the enrichment ratio is reported as ≤ 0.25. IENL was tested, and the enrichment ratio was ≤ 0.25. RYGL was tested, and the enrichment ratio was ≤ 0.25. For PPRV, the enrichment ratio was ≤ 0.25. For DFHW, the enrichment ratio was ≤ 0.25. In the case of VIGY, the enrichment ratio is reported as ≤ 0.25. TSLG showed an enrichment ratio of 14.5. APPQ was tested, and the enrichment ratio was ≤ 0.25. In the case of DAAW, the enrichment ratio is reported as ≤ 0.25. For HNRN, the enrichment ratio was ≤ 0.25. With LRFE the enrichment ratio was ≤ 0.25. In the case of IAIN, the enrichment ratio is reported as ≤ 0.25. In the case of QFGV, the enrichment ratio is reported as ≤ 0.25. With PMMA the enrichment ratio was ≤ 0.25. For PKAW, the enrichment ratio was ≤ 0.25. With PWPL the enrichment ratio was ≤ 0.25. MNCR was tested, and the enrichment ratio was ≤ 0.25. With FDFM the enrichment ratio was ≤ 0.25. VEFK was tested, and the enrichment ratio was ≤ 0.25. For KMCM, the enrichment ratio was ≤ 0.25. In the case of RAYD, the enrichment ratio is reported as ≤ 0.25. In the case of FDSP, the enrichment ratio is reported as ≤ 0.25. With AFVS the enrichment ratio was ≤ 0.25. For EAYN, the enrichment ratio was ≤ 0.25. In the case of PHQF, the enrichment ratio is reported as ≤ 0.25. LHPA showed an enrichment ratio of 0.304. With RGMP the enrichment ratio was ≤ 0.25. In the case of QMDY, the enrichment ratio is reported as ≤ 0.25. For NSFP, the enrichment ratio was ≤ 0.25. For WEGL, the enrichment ratio was ≤ 0.25. TMWH was tested, and the enrichment ratio was ≤ 0.25. With RFMS the enrichment ratio was ≤ 0.25. With NRHL the enrichment ratio was ≤ 0.25. KHDH was tested, and the enrichment ratio was ≤ 0.25. SEHQ was tested, and the enrichment ratio was ≤ 0.25. For AWYC, the enrichment ratio was ≤ 0.25. In the case of QHGQ, the enrichment ratio is reported as ≤ 0.25. With YYAC the enrichment ratio was ≤ 0.25. In the case of NFRV, the enrichment ratio is reported as ≤ 0.25. In the case of QFLF, the enrichment ratio is reported as ≤ 0.25. With DPND the enrichment ratio was ≤ 0.25. With RIRM the enrichment ratio was ≤ 0.25. FVMG was tested, and the enrichment ratio was ≤ 0.25. Work on MQWT yielded an enrichment ratio of 21.2. For LKSS, the enrichment ratio was ≤ 0.25. NFMR was tested, and the enrichment ratio was ≤ 0.25. With QANC the enrichment ratio was ≤ 0.25. QMER was tested, and the enrichment ratio was ≤ 0.25. For DWIE, the enrichment ratio was ≤ 0.25. With QDPV the enrichment ratio was ≤ 0.25. RNYR was tested, and the enrichment ratio was ≤ 0.25. With SHEQ the enrichment ratio was ≤ 0.25. In the case of PTCH, the enrichment ratio is reported as ≤ 0.25. NMGC was tested, and the enrichment ratio was ≤ 0.25. For IAWA, the enrichment ratio was ≤ 0.25. IYEE was tested, and the enrichment ratio was ≤ 0.25. For FNSS, the enrichment ratio was ≤ 0.25. For IMPE, the enrichment ratio was ≤ 0.25. In the case of EGFG, the enrichment ratio is reported as ≤ 0.25. AGAK gave an enrichment ratio of 10.2. For RLQL, the enrichment ratio was ≤ 0.25. With WPFH the enrichment ratio was ≤ 0.25. In the case of IFQS, the enrichment ratio is reported as ≤ 0.25. For FTSH, the enrichment ratio was ≤ 0.25. In the case of GHII, the enrichment ratio is reported as ≤ 0.25. With IIAI the enrichment ratio was ≤ 0.25. In the case of GGRI, the enrichment ratio is reported as ≤ 0.25. IDGM was tested, and the enrichment ratio was ≤ 0.25. For SVVF, the enrichment ratio was ≤ 0.25. For TCVL, the enrichment ratio was ≤ 0.25. With NCYQ the enrichment ratio was ≤ 0.25. With DRIC the enrichment ratio was ≤ 0.25. For VGAH, the enrichment ratio was ≤ 0.25. In the case of NWYI, the enrichment ratio is reported as ≤ 0.25. YNIL was tested, and the enrichment ratio was ≤ 0.25. For KWFS, the enrichment ratio was ≤ 0.25. With IYED the enrichment ratio was ≤ 0.25. In the case of RMDI, the enrichment ratio is reported as ≤ 0.25. In the case of IMEI, the enrichment ratio is reported as ≤ 0.25. VDEC was tested, and the enrichment ratio was ≤ 0.25. AMWW was tested, and the enrichment ratio was ≤ 0.25. In the case of WFAA, the enrichment ratio is reported as ≤ 0.25. KNPQ was tested, and the enrichment ratio was ≤ 0.25. ISFQ was tested, and the enrichment ratio was ≤ 0.25. KHHA was tested, and the enrichment ratio was ≤ 0.25. LWSM was tested, and the enrichment ratio was ≤ 0.25. HDQL was tested, and the enrichment ratio was ≤ 0.25. With HLIR the enrichment ratio was ≤ 0.25. EPSQ was tested, and the enrichment ratio was ≤ 0.25. RFVV was tested, and the enrichment ratio was ≤ 0.25. In the case of SNMD, the enrichment ratio is reported as 1.49. For CITI, the enrichment ratio was ≤ 0.25. For RIAW, the enrichment ratio was ≤ 0.25. For YPYM, the enrichment ratio was ≤ 0.25. With YRMR the enrichment ratio was ≤ 0.25. For KMTS, the enrichment ratio was ≤ 0.25. With SDMD the enrichment ratio was ≤ 0.25. With SFEG the enrichment ratio was ≤ 0.25. In the case of LAAC, the enrichment ratio is reported as ≤ 0.25. With AQSW the enrichment ratio was ≤ 0.25. Variant GSEQ has an enrichment ratio of 4.27. In the case of RDEQ, the enrichment ratio is reported as ≤ 0.25. In the case of WASF, the enrichment ratio is reported as ≤ 0.25. In the case of ELSY, the enrichment ratio is reported as ≤ 0.25. In the case of QRES, the enrichment ratio is reported as ≤ 0.25. In the case of PPTT, the enrichment ratio is reported as ≤ 0.25. For PTDE, the enrichment ratio was ≤ 0.25. With LTFV the enrichment ratio was 1.99. NYCW was tested, and the enrichment ratio was ≤ 0.25. With DCIA the enrichment ratio was ≤ 0.25. With ITHC the enrichment ratio was ≤ 0.25. QMLR was tested, and the enrichment ratio was ≤ 0.25. In the case of VARL, the enrichment ratio is reported as ≤ 0.25. In the case of IQKT, the enrichment ratio is reported as ≤ 0.25. With PHIL the enrichment ratio was ≤ 0.25. For ETMW, the enrichment ratio was ≤ 0.25. In the case of DWGC, the enrichment ratio is reported as ≤ 0.25. For FLRT, the enrichment ratio was ≤ 0.25. With DCTY the enrichment ratio was ≤ 0.25. ACRM was tested, and the enrichment ratio was ≤ 0.25. With YGAC the enrichment ratio was ≤ 0.25. NDRH was tested, and the enrichment ratio was ≤ 0.25. With EFQV the enrichment ratio was ≤ 0.25. In the case of LFTY, the enrichment ratio is reported as ≤ 0.25. QWVH was tested, and the enrichment ratio was ≤ 0.25. In the case of SFKP, the enrichment ratio is reported as ≤ 0.25. DCTC was tested, and the enrichment ratio was ≤ 0.25. In the case of DPLD, the enrichment ratio is reported as ≤ 0.25. With VMFW the enrichment ratio was ≤ 0.25. YECV was tested, and the enrichment ratio was 22.8. With YITP the enrichment ratio was ≤ 0.25. For PCFT, the enrichment ratio was ≤ 0.25. VSGL gave an enrichment ratio of 0.557. In the case of EKAA, the enrichment ratio is reported as ≤ 0.25. In the case of WEEL, the enrichment ratio is reported as ≤ 0.25. In the case of AFRR, the enrichment ratio is reported as ≤ 0.25.
